# Results from PubChem BioAssay AID1345083 (National Center for Advancing Translational Sciences (NCATS), 2018).
# Among all 94,000 compounds or so, about 6,200 (6.6%) were called active. The shares of active, inactive and inconclusive entries below differ from those in the screen. Calls follow the shape of the dose curve; as a rule, active = well fitted inhibition curve with a large enough effect; inconclusive = small, poorly fitted or top-dose-only effect; inactive = flat fitted curve, though single readings scatter. Potencies of inconclusive entries are doubtful fits and often do not repeat.
# Experiment: Cytotoxic Profiling in HEK 293 Cell Line of Diverse Libraries Using Quantitative High-Throughput Screening; also: nearly all actives have a fitted effect of over 60% in size
# Conditions: HEK 293 viability, ATP luminescence (CellTiter-Glo), 48-72 h; activity change, negative = cytotoxicity: at 115 µM (top of the series) unless noted; series mostly up to 115 µM
# Excerpt: Cell-based phenotypic screening is a commonly used approach to discover biological pathways, novel drug targets, chemical probes and high-quality hit-to-lead molecules. Many hits identified from high-throughput screening campaign are ruled out through a series of follow-up potency, selectivity/specificity, and cytotoxicity assays. Prioritization of molecules with little or no cytotoxicity for a more in-depth downstream evaluation influence the future direction of projects, so cytotoxicity profiling of the screening libraries at early stage is essential for increasing the likelihood of candidate success. In this study, we analyzed results from a cell-based cytotoxicity screening campaign, comprising nearly 10,000 compounds in NCATS annotated libraries, and over 100,000 compounds in a diversity library, evaluated in four normal cell lines (HEK 293, NIH 3T3, CRL-7250 and HaCat) and a cancer cell line (KB 3-1, a HeLa subline) with overall screening outcomes, hit rates, pan-activity and selectivity. For the annotated library, we also examined the primary targets and mechanistic pathways regularly associated with cell death. To our knowledge, this is the first study to use high-throughput screening to profile large libraries for cytotoxicity assessment in both normal and cancer cell lines. In summary, the results generated here constitutes a valuable resource for the scientific community and provides insight on identifying cytotoxic compounds with particular mechanisms of action, and prioritizing compounds with suitable cytotoxicity profile for further evaluation.
# HEK 293 cells were seeded into white 1536-well plates using a Multidrop Combi peristaltic dispenser (ThermoFisher, Waltham, MA) at a density of 250 cells/well in 5 uL of medium respectively. A pintool (Kalypsys) was used to transfer 23 nL of compound solution to the 1536-well assay plates. After 48 or 72 hr incubation at 37 degree Celsius, 5% CO2 and 95% humidity, 2.5 uL of CellTiter-Glo (Promega) was dispensed into each well using a dispenser (Aspect Automation, St. Paul, MN) with solenoid valves (Lee Valves, Westbrook CT). Plates were left at room temperature for 10 min before imaging the ATP-coupled luminescence using a ViewLux microplate imager (PerkinElmer, Waltham, MA).
# % is scaled to controls: 0 for no effect and ±100 for the full control effect; potency is read from the fitted curve at half-maximal effect; tags tell the direction and shape of the fitted curve.
SMILES,outcome,Potency,"activity change, negative = cytotoxicity"
COc1ccc(-c2noc(C(=O)O)c2[C@@H](C)NC(=O)Nc2ccccc2)cc1,inactive [at 172 µM],–,–
CN(C)c1nc(-c2ccccc2)nc2c1CCN(C(=O)C1CC13CCC3)C2 (stereo unspecified),–,"inconclusive: 56.2 µM [inhibitor, partial curve, poor fit]",–
COCc1ccc(CN2CCC(Oc3ccc(C(=O)NC4CCCC4)cc3Cl)CC2)o1,–,active: 35.5 µM,–
CCOCCn1c(=O)[nH]c2cc(C(=O)NCc3sc(C)nc3C)ccc21,–,"inconclusive: 50.1 µM [inhibitor, partial curve, poor fit]",–
CCN(CC)C(=O)CCc1c(C)nn(-c2ccccc2C)c1Oc1cccc(F)c1,–,active: 39.8 µM,–
O=C(CN1C(=O)NC(c2ccccc2Cl)C2=C1COC2=O)NCCc1ccc(Cl)cc1 (stereo unspecified),–,"inconclusive: 50.1 µM [inhibitor, partial curve, poor fit]",–
CC(=O)N1CCC(C2CCN(C(=O)CN3CCOCC3)C2)CC1 (stereo unspecified),inactive,–,–
CNC(=O)c1cc(C2CC2)nc2c1c(C1CCCN1C(=O)c1ccccc1F)nn2C (stereo unspecified),–,–,inactive: -20.8%
Cc1ccc2c(c1)nc1n2[C@@H](CNS(=O)(=O)c2ccccc2)COC1,–,"inconclusive: 25.1 µM [inhibitor, partial curve, poor fit]",–
Cc1ccc(CNC(=O)NCCc2ncc(C)n2Cc2ccc(F)cc2)cc1,–,"inconclusive: 70.8 µM [inhibitor, partial curve]",–
O=C([C@@H]1C[C@@H](c2ccc(F)cc2)N([S+](=O)([O-])c2cccnc2)C1)N1CCOCC1,–,"inconclusive: 126 µM [inhibitor, single point]",–
CC(C(=O)N(C)C)N1CCc2onc(C(c3ccccc3)c3ccccc3)c2C1 (stereo unspecified),–,"inconclusive: 39.8 µM [inhibitor, full curve]",–
CC(O)c1cc2n(n1)CCN(C(=O)c1cc(=O)n(C)c(=O)n1C)C2 (stereo unspecified),–,–,inactive: 2.27%
COc1cccc(CNC(=O)CCC2CCN(C(=O)c3ccccc3F)CC2)c1OC,–,"inconclusive: 89.1 µM [inhibitor, single point]",–
O=C(NCCC1CCN(C(=O)Nc2cccc(F)c2)CC1)c1ccoc1,–,"inconclusive: 11.2 µM [inhibitor, full curve]",–
COc1cc(OC)cc(-c2onc(C)c2C(=O)NCCOc2ccccc2)c1,–,"inconclusive: 89.1 µM [inhibitor, single point]",–
COCCN1C(=O)CC[C@]2(C(=O)Nc3ccccn3)CCCC[C@@H]12,–,–,inactive: -14.2%
Cc1cc(C)cc(-c2ccc(CN3CCCC3C(=O)N3CCC(c4ccccc4)CC3)cc2)c1 (stereo unspecified),–,"inconclusive: 31.6 µM [inhibitor, full curve, poor fit]",–
CNC(=O)N1C[C@@H](CN(C)C)[C@H](NS(=O)(=O)c2ccc3c(c2)CCC3)C1,–,–,inactive: 2.7%
N#Cc1ccc(CN2C[C@@H]3C(=O)N(CCN4CCc5ccccc5C4)C(=O)[C@@H]3C2)cc1,–,"inconclusive: 79.4 µM [inhibitor, partial curve, poor fit]",–
COc1ccccc1-n1c(=O)c(C(=O)N2CCN(Cc3ccccc3)CC2)nc2cccnc21,inactive,–,–
OCC1(CN2CCCC2)CCN(Cc2cc(F)cc(F)c2)CC1,–,–,inactive: -5.21%
COc1ccc(C(=O)NC2CCN(c3cc(-c4ccccc4)[nH]n3)CC2)c(OC)c1,–,active: 79.4 µM,–
O=C(NCCC1CCN(C(=O)Nc2ccc(F)cc2F)CC1)c1ccsc1,–,"inconclusive: 89.1 µM [inhibitor, single point]",–

SMILES,outcome,Potency,"activity change, negative = cytotoxicity"
Cc1ccc(Nc2ncncc2-c2nc(-c3ccccc3)no2)c(C)c1,–,"inconclusive: 56.2 µM [inhibitor, partial curve, poor fit]",–
CC1=C[C@@H](CO)[C@H](C(C)C)C[C@H]1CC(=O)NCc1ccc(F)cc1,–,"inconclusive: 100 µM [inhibitor, partial curve]",–
O=C(NCc1ccc(F)cc1)c1ccc2oc(-c3ccnc(Cl)c3)nc2c1,–,–,inactive: -15.6%
Cn1cc(CN2CCOc3cc([S+](=O)([O-])Nc4ccccc4)ccc3C2)cn1,–,"inconclusive: 79.4 µM [inhibitor, partial curve]",–
Oc1ccc(-c2cc3c(cn2)CN(Cc2ccccc2)CCN3)cc1F,–,"inconclusive: 63.1 µM [inhibitor, full curve]",–
Cc1nc2cnccn2c1C(=O)NCCc1cccc(F)c1,–,–,inactive: -14.2% [at 172 µM]
O=C(NC1CCCC1)NC1CCN(c2nccc(Nc3ccccc3Cl)n2)CC1,–,"inconclusive: 89.1 µM [inhibitor, single point]",–
CCN(CC)C(=O)c1cc2c(s1)CCC(C(=O)N1CCN(c3ccccc3)CC1)C2 (stereo unspecified),–,"inconclusive: 35.5 µM [inhibitor, partial curve, poor fit]",–
COc1ccc(-n2nc(C3CCCN(C(=O)c4ccc(C)cc4)C3)[nH]c2=O)cc1 (stereo unspecified),–,–,inactive: -21.2%
O=C1CC(c2ccccc2)N(C(=O)CNC(=O)c2cc(C3CC3)[nH]n2)CCCCCCN1 (stereo unspecified),inactive,–,–
Cn1ncc2c(C(=O)Nc3ccc(F)cc3)cc(-c3cccc(C(F)(F)F)c3)nc21,–,–,inactive: -9.89%
Cc1cccc(-n2c(=O)c3c(cc(C)n3C)n(CC(=O)Nc3ccc4c(c3)OCO4)c2=O)c1,–,–,inactive: -6.95%
COc1ccc(N2CC(c3noc(-c4cc(C)cc(C)c4)n3)CC2=O)cc1 (stereo unspecified),–,"inconclusive: 100 µM [inhibitor, single point]",–
CCn1cc(S(=O)(=O)N2CCCCC2CCn2cc(-c3ccccc3)nn2)cn1 (stereo unspecified),–,"inconclusive: 50.1 µM [inhibitor, partial curve, poor fit]",–
Cc1cccc(CN2CCCN(S(C)(=O)=O)C(c3ccccc3)CC(=O)NCC2)c1 (stereo unspecified),–,–,inactive: -28.2%
Cc1ccc(C(=O)N2CCC3(CC2)CN(C2CCC2)CC3CO)s1 (stereo unspecified),–,"inconclusive: 89.1 µM [inhibitor, partial curve, poor fit]",–
CN1CC[C@H](c2nnc(-c3ccccc3)o2)C1,inactive [at 230 µM],–,–
O=C(c1cccc(Cl)c1)N1CCCN(c2ccc3nnc(C4CC4)n3n2)CC1,–,–,inactive: -7.42%
c1ccc(CCc2nc3nccc(-c4ccsc4)n3n2)cc1,–,"inconclusive: 89.1 µM [inhibitor, single point]",–
O=C(NCc1cccs1)C1CCCN(Cc2cccc(-c3ccsc3)c2)C1 (stereo unspecified),–,active: 39.8 µM,–
O=C(c1ccc(-c2ccc(N3CCSCC3)nc2)cc1)N1CCOCC1,–,active: 25.1 µM,–
O=S(=O)(N[C@H]1CO[C@H]2[C@@H]1OC[C@@H]2n1cc(CC2CCCCC2)nn1)c1cccs1,–,active: 79.4 µM,–
CC(=O)N1CCN(C(=O)c2cc(-c3cccnc3)nc3c2cnn3C)CC1,–,–,inactive: -0.722%
Cc1ccc([S+](=O)([O-])N2CC(=O)N(Cc3cccc(F)c3)CC(O)C2)cc1 (stereo unspecified),–,"inconclusive: 35.5 µM [inhibitor, partial curve, poor fit]",–

SMILES,outcome,Potency,"activity change, negative = cytotoxicity"
CSc1cccc(NC(=O)Cn2ccn3nc(-c4ccccc4)c(CO)c3c2=O)c1,–,–,inactive: -17.3%
COc1ccnc(-c2nnc3ccc(N4CCc5ccccc5CC4)nn23)c1,–,active: 56.2 µM,–
O=C(Nc1ccccc1F)N1CC2CCC(C1)N2Cc1cccc(-c2ccsc2)c1,–,"inconclusive: 79.4 µM [inhibitor, partial curve]",–
O=C(NCc1cccc(Cl)c1)C1CCc2nnc(CN[S+](=O)([O-])c3ccccc3Cl)n21 (stereo unspecified),inactive,–,–
O=C(C1CCCN(Cc2cccc(-c3cccs3)c2)C1)N1CCC(c2ccccc2)CC1 (stereo unspecified),–,active: 44.7 µM,–
O=c1cc2c(nn1Cc1ccc(OC(F)(F)F)cc1)CCCCC2,–,active: 44.7 µM,–
O=C(CCc1ccccc1)N1CCCCCC1c1nc(-c2ccccc2)no1 (stereo unspecified),–,"inconclusive: 50.1 µM [inhibitor, partial curve, poor fit]",–
COc1cc(=O)n2c(c1C(=O)NCc1ccc(Cl)cc1)CCCC2,–,–,inactive: 48.1%
COc1ccc(-c2cc(N3CCCC(NC(=O)c4cc(OC)cc(OC)c4)C3)n[nH]2)cc1 (stereo unspecified),–,"inconclusive: 44.7 µM [inhibitor, partial curve]",–
COc1ccc(CNC(=O)C(C)C2CCOCC2)cc1 (stereo unspecified),–,–,inactive: 24.8%
CC(=O)N1CCC(C(=O)N2CCCC2c2nc(CCOCC3CCCC3)no2)CC1 (stereo unspecified),inactive,–,–
CCn1c2c(c(=O)n1Cc1ccccc1)CCN(C(=O)c1cccc(C#N)c1)C2,–,–,inactive: 0.4% [at 172 µM]
OCC1(Cc2ccc(F)cc2)CCCN(c2nc3ccccc3s2)C1 (stereo unspecified),–,active: 39.8 µM,–
COCC(=O)NC[C@H]1CCN(Cc2ccccc2)C[C@H]1N(C)C,–,–,inactive: -16.7%
O=C(Cc1ccccc1)N1CCC[C@H]1c1nc(-c2ccccc2Cl)no1,–,"inconclusive: 89.1 µM [inhibitor, single point]",–
Cc1ccc(-c2ccccc2CN2CCN(C(=O)c3ccccc3F)CC2)cc1Cl,–,"inconclusive: 39.8 µM [inhibitor, partial curve, poor fit]",–
COCCNC(=O)c1ccc2nnc(-c3ccoc3)n2c1,–,–,inactive: 0.263% [at 172 µM]
COc1ccc(C(=O)NC(C(=O)N2CCCC2)C2CCN(C(=O)c3ccc(Cl)cc3)CC2)cc1 (stereo unspecified),–,"inconclusive: 89.1 µM [inhibitor, single point]",–
COc1ccc2ccc(OCc3nc(C(=O)N(C)CC(C)O)co3)cc2c1 (stereo unspecified),–,"inconclusive: 50.1 µM [inhibitor, partial curve, poor fit]",–
N#Cc1ccc(CN2CCCC(c3nc(-c4cccnc4)no3)CCNC(=O)CC2)cc1 (stereo unspecified),–,"inconclusive: 89.1 µM [inhibitor, single point]",–
Cc1ccc(OCCC2CCN(C(=O)CC(F)(F)F)C2)cc1 (stereo unspecified),–,"inconclusive: 89.1 µM [inhibitor, single point]",–
COc1ccc2[nH]c3c(c2c1)CCNC31CCN(C(=O)CN2CCCC2=O)CC1,–,–,inactive: -13.4%
OC1(Cc2cc(-c3ccccc3)no2)CCN(c2ncncn2)CC1,–,"inconclusive: 56.2 µM [inhibitor, partial curve, poor fit]",–
